The other results are listed elsewhere or left out. The list includes weakly bound sequences.

In this experiment the target is T1, MBP-FoxP3dN (UniProt Q99JB6).
T1 sequence: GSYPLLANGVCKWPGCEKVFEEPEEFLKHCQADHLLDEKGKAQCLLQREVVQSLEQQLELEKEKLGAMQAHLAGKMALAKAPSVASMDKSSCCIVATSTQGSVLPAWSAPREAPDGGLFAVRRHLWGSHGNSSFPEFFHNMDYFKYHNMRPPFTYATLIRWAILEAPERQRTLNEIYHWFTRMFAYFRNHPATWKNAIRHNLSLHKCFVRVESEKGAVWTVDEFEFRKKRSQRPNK
The experiment is described as follows: PD-seq (MBP pull-down with sequencing). The conditions noted are these: 20 mM Tris-HCl pH 7.5, 100 mM NaCl, 1.5 mM MgCl2, 0.4 uM protein, 0.1 uM dsDNA library, 30 min, room temperature, amylose pull-down; high values mean tight binding; double strand, one strand shown.
As to “GATGATTGTTCTCCCAGCTGATGAATTTGTACTATCGAGTAAACAAATTTTCCTAATCTTTCTGTTCAAGCGCCATCTAC”, the binding signal (RPM ratio (pull-down/input)) amounted to 2.15.
Take “GATGATTGTTCTCCCAGCTGATGAATTCAACTTATCGAGTAAACAAATTTTCCTAATCTTTCTGTTCAAGCGCCATCTAC”: the binding signal (RPM ratio (pull-down/input)) was 0.561.
In the case of “GATGATTGTTCTCCCAGCTGATGAATTTGCTGATTCGAGTAAACAAATTTTCCTAATCTTTCTGTTCAAGCGCCATCTAC” it was 4.61.
In the case of “GATGATTGTTCTCCCAGCTGATGAATTTTTCAATTCGAGTAAACAAATTTTCCTAATCTTTCTGTTCAAGCGCCATCTAC” it was 0.281; in that of “GATGATTGTTCTCCCAGCTGATGAATTGTGGGGCTCGAGTAAACAAATTTTCCTAATCTTTCTGTTCAAGCGCCATCTAC”, 0.656; in that of “GATGATTGTTCTCCCAGCTGATGAATTAAACGCATCGAGTAAACAAATTTTCCTAATCTTTCTGTTCAAGCGCCATCTAC”, 1.19.
On to “GATGATTGTTCTCCCAGCTGATGAATTTCTCCTGTCGAGTAAACAAATTTTCCTAATCTTTCTGTTCAAGCGCCATCTAC”, for which the binding signal (RPM ratio (pull-down/input)) amounted to 0.185.
Regarding “GATGATTGTTCTCCCAGCTGATGAATTCACTGATTCGAGTAAACAAATTTTCCTAATCTTTCTGTTCAAGCGCCATCTAC”, the binding signal (RPM ratio (pull-down/input)) was determined as 0.308.
For the sequence “GATGATTGTTCTCCCAGCTGATGAATTCGGTCTTTCGAGTAAACAAATTTTCCTAATCTTTCTGTTCAAGCGCCATCTAC”, the binding signal (RPM ratio (pull-down/input)) was 0.441.
In the case of “GATGATTGTTCTCCCAGCTGATGAATTTACTATATCGAGTAAACAAATTTTCCTAATCTTTCTGTTCAAGCGCCATCTAC”, the binding signal (RPM ratio (pull-down/input)) turned out to be 0.679.
As for “GATGATTGTTCTCCCAGCTGATGAATTCATTGCCTCGAGTAAACAAATTTTCCTAATCTTTCTGTTCAAGCGCCATCTAC”, the binding signal (RPM ratio (pull-down/input)) amounted to 1.17.
Turning to “GATGATTGTTCTCCCAGCTGATGAATTAGTCTCTTCGAGTAAACAAATTTTCCTAATCTTTCTGTTCAAGCGCCATCTAC”, the binding signal (RPM ratio (pull-down/input)) was 0.628.
In the case of “GATGATTGTTCTCCCAGCTGATGAATTCGCAACTTCGAGTAAACAAATTTTCCTAATCTTTCTGTTCAAGCGCCATCTAC” it was 2.54; in that of “GATGATTGTTCTCCCAGCTGATGAATTATTAATTTCGAGTAAACAAATTTTCCTAATCTTTCTGTTCAAGCGCCATCTAC”, 0.431; in that of “GATGATTGTTCTCCCAGCTGATGAATTTCGGGCATCGAGTAAACAAATTTTCCTAATCTTTCTGTTCAAGCGCCATCTAC”, 0.662.
The figure for “GATGATTGTTCTCCCAGCTGATGAATTTACTCCTTCGAGTAAACAAATTTTCCTAATCTTTCTGTTCAAGCGCCATCTAC” is 0.503.
The figure for “GATGATTGTTCTCCCAGCTGATGAATTACTATTGTCGAGTAAACAAATTTTCCTAATCTTTCTGTTCAAGCGCCATCTAC” is 0.817; for “GATGATTGTTCTCCCAGCTGATGAATTAGATTAGTCGAGTAAACAAATTTTCCTAATCTTTCTGTTCAAGCGCCATCTAC” it is 1.04; for “GATGATTGTTCTCCCAGCTGATGAATTTAGAATGTCGAGTAAACAAATTTTCCTAATCTTTCTGTTCAAGCGCCATCTAC” it is 0.72.
Take “GATGATTGTTCTCCCAGCTGATGAATTAACCCAGTCGAGTAAACAAATTTTCCTAATCTTTCTGTTCAAGCGCCATCTAC”: the binding signal (RPM ratio (pull-down/input)) is 0.224.
Turning to “GATGATTGTTCTCCCAGCTGATGAATTCGCAAGTTCGAGTAAACAAATTTTCCTAATCTTTCTGTTCAAGCGCCATCTAC”, the binding signal (RPM ratio (pull-down/input)) worked out at 0.458.
In the case of “GATGATTGTTCTCCCAGCTGATGAATTAGTGATTTCGAGTAAACAAATTTTCCTAATCTTTCTGTTCAAGCGCCATCTAC” it was 2.55; in that of “GATGATTGTTCTCCCAGCTGATGAATTCGACTTATCGAGTAAACAAATTTTCCTAATCTTTCTGTTCAAGCGCCATCTAC”, 0.683; in that of “GATGATTGTTCTCCCAGCTGATGAATTGCATCGCTCGAGTAAACAAATTTTCCTAATCTTTCTGTTCAAGCGCCATCTAC”, 1.54.
In the case of “GATGATTGTTCTCCCAGCTGATGAATTCGGATGATCGAGTAAACAAATTTTCCTAATCTTTCTGTTCAAGCGCCATCTAC” it was 0.41; in that of “GATGATTGTTCTCCCAGCTGATGAATTACCGCGTTCGAGTAAACAAATTTTCCTAATCTTTCTGTTCAAGCGCCATCTAC”, 1.32.
Consider “GATGATTGTTCTCCCAGCTGATGAATTTAGTGTGTCGAGTAAACAAATTTTCCTAATCTTTCTGTTCAAGCGCCATCTAC”, for which the binding signal (RPM ratio (pull-down/input)) stood at 3.43.
Consider “GATGATTGTTCTCCCAGCTGATGAATTTGAGTTTTCGAGTAAACAAATTTTCCTAATCTTTCTGTTCAAGCGCCATCTAC”, for which the binding signal (RPM ratio (pull-down/input)) is 0.885.
Take “GATGATTGTTCTCCCAGCTGATGAATTCCCGTAGTCGAGTAAACAAATTTTCCTAATCTTTCTGTTCAAGCGCCATCTAC”: the binding signal (RPM ratio (pull-down/input)) was 0.253.
As for “GATGATTGTTCTCCCAGCTGATGAATTGACACAGTCGAGTAAACAAATTTTCCTAATCTTTCTGTTCAAGCGCCATCTAC”, the binding signal (RPM ratio (pull-down/input)) turned out to be 0.454.
The figure for “GATGATTGTTCTCCCAGCTGATGAATTGCCCTTTTCGAGTAAACAAATTTTCCTAATCTTTCTGTTCAAGCGCCATCTAC” is 0.484.

Values taken from PMC12820563.
